Assay results: paper PMC8550979 (Leukemia, 2021)

B1: RUNX1 variant Arg118Gly, YFP fusion protein (natural protein)
chain: not shown
B2: RUNX1 variant Arg139Gln (pathogenic missense control), YFP fusion protein (natural protein)
chain: not shown
B3: RUNX1 variant Arg174Gln (pathogenic missense control), YFP fusion protein (natural protein)
chain: not shown
B4: RUNX1 variant Arg180Trp, YFP fusion protein (natural protein)
chain: not shown
B5: RUNX1 variant Arg205Gln, YFP fusion protein (natural protein)
chain: not shown
B6: RUNX1 variant Gly60Cys, YFP fusion protein (natural protein)
chain: not shown
B7: RUNX1 variant Leu29Ser, YFP fusion protein (natural protein)
chain: not shown
B8: RUNX1 variant Leu117Gln, YFP fusion protein (natural protein)
chain: not shown
B9: RUNX1 variant Lys83Glu (pathogenic missense control), YFP fusion protein (natural protein)
chain: not shown

These binders were tested against CBFB CFP fusion protein (human, UniProt Q13951 1-182) (assay: FRET or BRET; flow-cytometry-based FRET; RUNX1.YFP (wild type or variant) cotransfected with CBFB.CFP in HEK293T cells; gate set with RUNX1.YFP plus CFP alone; FRET+ cells relative to wild-type RUNX1; three biological replicates). Conditions: partners not purified.
UniProt Q13951, sequence (Q13951 whole entry, the tested form may be a part): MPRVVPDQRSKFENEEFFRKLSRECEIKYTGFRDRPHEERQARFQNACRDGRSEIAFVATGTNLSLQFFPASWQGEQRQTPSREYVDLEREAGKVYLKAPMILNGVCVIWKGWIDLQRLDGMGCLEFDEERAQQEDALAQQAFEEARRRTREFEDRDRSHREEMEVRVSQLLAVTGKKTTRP

Heterodimerization relative to wild type, ≥ 85 % of wild-type activity:
B1
B2
B3
B4
B5
B6
B7
B8
B9
